# Source: PubChem BioAssay AID624202 (National Center for Advancing Translational Sciences (NCATS), 2012)
# About 4,000 (1.1%) of roughly 380,000 compounds were called active. The shares of active, inactive and inconclusive entries below differ from those in the screen. Calls follow the shape of the dose curve; as a rule, active = well fitted activation curve with a large enough effect; inconclusive = small, poorly fitted or top-dose-only effect; inactive = no such curve, though single readings can be large or run the other way. Potencies of inconclusive entries are doubtful fits and often do not repeat.
# Test: qHTS Assay to Identify Small Molecule Activators of BRCA1 Expression; also: nearly all actives have a fitted effect of over 80% in size
# Conditions: MCF7-BRCA1-FFLuc reporter, luminescence, 48 h; activation: at 46.1 µM (top of the series), scaled: vehicle 0%, 10 µM genistein 100% unless noted
# Outline: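 Quantitative HTS in MCF7 cells stably reporting BRCA1 expression via firefly luciferase. Compound treatment lasts 48 h at 37 °C in phenol-red free MEM. Activation is expressed relative to genistein at 10 microM and DMSO.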
# Potency is read from the fitted curve at half-maximal effect; tags tell the direction and shape of the fitted curve.
Structure (SMILES),activation,Potency
O=C(NC1CCCCC1)c1ccccc1-c1ccccc1,inactive: 20.2%,
CCCN1CCN(c2ncnc3sc(C(=O)Nc4c(C)cc(C)cc4C)c(C)c23)CC1,inactive: 0.371%,
OCCc1ccc(NCCc2cccs2)cc1,,active: 8.91 µM
Cc1cc(-c2ccc(F)cc2)n2ncc(-c3ccccc3)c2n1,,"inconclusive: 10 µM [activator, partial curve, poor fit]"
Cn1cccc1C(=O)OCC(=O)N1CCc2ccccc21,,active: 10 µM
CCSc1cc(C)nc2c(-c3ccccc3)c(C)nn12,inactive: 1.96%,
COc1ccc(-c2cc3ccc(F)cc3cn2)cc1,,"inconclusive: 1.41 µM [activator, full curve, poor fit]"
CS(=O)(=O)N1CCc2cc(C(=O)Nc3ccccc3Br)ccc21,,"inconclusive: 11.2 µM [activator, partial curve, poor fit]"
CCc1ccc(C2=NN(C(C)=O)C(c3ccco3)C2)cc1 (stereo unspecified),,"inconclusive: 11.2 µM [activator, partial curve, poor fit]"
CSc1nc2ccc(NC(=O)C3CCCO3)cc2s1 (stereo unspecified),,"inconclusive: 7.08 µM [activator, partial curve, poor fit]"
CSc1cccc(NC(=O)Nc2ccc(Cl)cc2)c1,,active: 7.94 µM
CC(=O)Oc1ccc(-c2nc(-c3ccccc3)no2)cc1,,"inconclusive: 2.51 µM [activator, partial curve, poor fit]"
CN1CCN(NC(=O)Nc2ccc(Br)cc2Cl)CC1,,"inconclusive: 12.6 µM [activator, partial curve, poor fit]"
C/C(=N\NC(=O)c1ccc2ccccc2c1)c1cccnc1,,active: 10 µM
COc1cc(CNc2ncnc3c2[nH]c2ccc(C)cc23)cc(OC)c1,inactive: -38.2%,
C=CCOc1c(OC)cc(/C=N/Nc2cccc(C(=O)O)c2)c(Br)c1Br,,"inconclusive: 12.6 µM [activator, partial curve, poor fit]"
CCCCOC(=O)c1ccc(N=Nc2c(C)c(C#N)c(O)[nH]c2=O)cc1,inactive: -8.05%,
CCOC(=O)C1CCN(CCC(=O)Nc2ccccc2)CC1,,"inconclusive: 22.4 µM [activator, single point]"
Cc1nc(Nc2ccccc2F)c2oc3ccccc3c2n1,inactive: -52.2%,
Cc1ccccc1CSc1ccc(-c2ccc3c(c2)OCO3)nn1,,active: 8.91 µM
CCOC(=O)C1CCN(C(=O)/C=C/c2cccs2)CC1,,"inconclusive: 12.6 µM [activator, partial curve, poor fit]"
[O-][n+]1ccccc1SC/C=C/c1ccccc1,,"inconclusive: 20 µM [activator, partial curve, poor fit]"
NC(=S)N/N=C/c1cn(-c2ccccc2)nc1-c1cccnc1,inactive: 38%,
COc1cc(/C=N/Nc2ccc(C(=O)O)cc2)cc(OC)c1OC,inactive: 111%,
COc1ccc(CNC(=O)c2ccc3c(=O)n4c(nc3c2)CCCCC4)cc1OC,inactive: -47.2%,
CC1CCN(C(=O)c2cc3c(=O)n4ccccc4nc3s2)CC1,,"inconclusive: 15.8 µM [activator, partial curve, poor fit]"

Structure (SMILES),activation,Potency
Nc1ccc2nn(-c3ccc(F)cc3)nc2c1,,"inconclusive: 1 µM [activator, full curve, poor fit]"
CC(=O)Nc1ccc(NC(=O)CCCN2C(=O)C(c3ccccc3)Oc3cccnc32)cc1 (stereo unspecified),inactive: -19.7%,
O=C(c1ccc2oc(CCc3ccccc3)nc2c1)N1CC[C@H](O)C1,,"inconclusive: 2.82 µM [activator, full curve, poor fit]"
COc1ccc(/C=N/N=C2/CC(C)(C)Cc3n[nH]c(=O)cc32)cc1,inactive: -10.1%,
COc1ccc2occ(C(=O)c3ccccc3)c2c1,,"inconclusive: 12.6 µM [activator, partial curve, poor fit]"
Cc1ccn2c(CC(C)(C)C)c(-c3ccc(F)cc3)nc2c1,,"inconclusive: 15.8 µM [activator, partial curve, poor fit]"
[O-]/[N+](=N\Nc1ccc(Cl)cc1)c1ccccc1,,"inconclusive: 11.2 µM [activator, partial curve, poor fit]"
Cc1ccc(NC(=O)c2ccccc2Cl)c(Cl)c1,,"inconclusive: 7.94 µM [activator, partial curve, poor fit]"
O=C(CSc1ccc(-c2cccs2)nn1)c1cccs1,,active: 11.2 µM
CCN(C(=O)Cn1cnc2onc(-c3ccc(F)cc3)c2c1=O)c1cc(C)ccc1C,inactive: 18.4%,
O=C(C1CCCCC1)N1CCN(c2nc(-c3ccc(F)cc3)cs2)CC1,inactive: -21.7%,
Cc1cc(O)c(N=Nc2ccc(C(=O)O)cc2)cc1C,inconclusive: 57.6% [activator],
CN(Cc1cccs1)C(=O)CSc1nc2ccccc2[nH]1,,"inconclusive: 35.5 µM [activator, single point]"
O=C(NNc1nc2cc3c(cc2s1)OCCO3)c1ccccc1,,"inconclusive: 8.91 µM [activator, partial curve, poor fit]"
Cn1c(CSc2nnc(SCc3ccccc3)s2)nc2ccccc21,inactive: 0.494%,
Cc1cccc(-n2ncc3c(NCCCO)ncnc32)c1,,"inconclusive: 17.8 µM [activator, partial curve, poor fit]"
Cn1cc(Br)c(-c2cccc(N3C(=O)CCCC3=O)c2)n1,,"inconclusive: 3.16 µM [activator, partial curve, poor fit]"
CC(C)c1ccc(NC2=NCC(=O)N2Cc2cccs2)cc1,,"inconclusive: 15.8 µM [activator, partial curve, poor fit]"
C=C(C)C(=O)Nc1cccc(C2=NOC3(C2)C[C@@H](C(N)=O)N(C(=O)C2(C)CC2)C3)c1 (stereo partly specified),inactive: -2.82%,
CC1CC(C)CN(S(=O)(=O)c2ccc(C(=O)NCc3ccc4c(c3)OCO4)cc2)C1 (stereo unspecified),inactive: -33.8%,
O=C(Nc1cccc(Cl)c1)c1ccc2sc([C@@H]3O[C@H](CO)[C@H](O)[C@H](O)[C@H]3O)nc2c1,,"inconclusive: 35.5 µM [activator, single point]"
COc1ccc(C(NC(=O)C2CCN(Cc3ccc(Oc4ccccc4)cc3)CC2)c2ccccn2)cc1 (stereo unspecified),inactive: -15.5%,
CN(C)c1ncnc2c1ncn2-c1ccccc1,,active: 11.2 µM
CC1(C)CC(=O)C(C2C3=C(CC(C)(C)CC3=O)Oc3ccc4ccccc4c32)C(=O)C1 (stereo unspecified),,active: 7.94 µM
CCCc1ccc2oc(C(=O)NCCc3cnn(C)c3)c(C)c2c1,,active: 8.91 µM
Cc1ccccc1NC(=O)Nc1nc2ccc(S(C)(=O)=O)cc2s1,,"inconclusive: 2 µM [activator, partial curve, poor fit]"

Structure (SMILES),activation,Potency
CC(C)(C)c1ccc(COc2ccsc2C(=O)O)cc1,,"inconclusive: 10 µM [activator, partial curve, poor fit]"
CC(=O)c1ccc(-c2nnc(CCC(=O)N3CCCC(C(=O)CC(C)C)C3)o2)s1 (stereo unspecified),,"inconclusive: 12.6 µM [activator, partial curve, poor fit]"
CCOC(=O)c1cc(-c2ccccc2)nn1Cc1cc(C)no1,,"inconclusive: 17.8 µM [activator, single point]"
Cc1c(NC(=O)CSc2nnc3c4ccccc4n(CCc4ccccc4)c3n2)c(=O)n(-c2ccccc2)n1C,inactive: 6.89%,
O=C(Oc1ccc(-c2ccccc2)cc1)N1CCCCC1,,active: 7.08 µM
COc1cccc(/C=N/N2CCN(c3ccccc3OC)CC2)c1,,"inconclusive: 15.8 µM [activator, single point]"
Cc1ccc(NC(=O)c2ccc(OC(=O)CCN3C(=O)c4ccccc4C3=O)cc2)cc1,,active: 7.08 µM
CCCCCCSc1cc(-c2nc3cnccn3c2NCc2ccccc2)ccc1OC,inactive: 0%,
O=C1CCCCC1Sc1nnc(Nc2ccccc2)s1 (stereo unspecified),,"inconclusive: 7.94 µM [activator, partial curve, poor fit]"
CCCCCCCn1c2c(c(=N)c3ccccc31)CCC2,inactive: -66.5%,
O=C(Nc1ccc2[nH]ncc2c1)c1ccccc1Br,,"inconclusive: 11.2 µM [activator, partial curve, poor fit]"
Cc1cc(C)c(NC(=O)Nc2ccccc2)c(C)n1,inactive: -6.35%,
CCN(Cc1cnn(C)c1)Cc1nc(Cc2ccccc2Cl)no1,,"inconclusive: 31.6 µM [activator, single point]"
CC(C)(C)n1nnnc1CN1CCN(C(c2ccccc2)c2ccccc2)CC1,inactive: -42.1%,
Cc1nc(S(=O)(=O)Cc2ccccc2)nc2c1CCC2,inactive: 17%,
CC(C)Oc1ccc(CSC(=N)N)cc1,inactive: -42.3%,
COc1ccc(C2CC(c3ccc(OC)c(OC)c3)=NN2S(C)(=O)=O)cc1 (stereo unspecified),,"inconclusive: 1.58 µM [activator, full curve, poor fit]"
COc1cc(/C=C2/C=Cc3ccccc32)ccc1N(C)C,,"inconclusive: 2 µM [activator, full curve, poor fit]"
CCC1(O)C(=O)OCc2c1cc1n(c2=O)Cc2cc3c(N)cccc3nc2-1 (stereo unspecified),inconclusive: -89.4% [activator],
COc1ccc(NC(=O)c2sc3nc(C)cc(C)c3c2N)cc1,,"inconclusive: 0.631 µM [activator, full curve, poor fit]"
COc1ccc(C(=O)COC(=O)c2cccc(-n3cnnn3)c2)c(OC)c1,,active: 2.51 µM
O=C(Nc1ccc(Br)cc1)C1CCN(S(=O)(=O)c2cccc3nsnc23)CC1,inactive: 15.2%,
Clc1ccc(CSc2nc3ccncc3[nH]2)cc1,,"inconclusive: 1.58 µM [activator, partial curve, poor fit]"
O=C(NC(=S)Nc1cccc2[nH]ncc12)c1ccccc1,,active: 10 µM
